Data: publication PMC9626503
These are yes or no findings as the source states them, for the method shown. In cells and extracts the contact can be indirect. Some entries that bind do so weakly or less than the wild type. For some assays here: Where a sequence is shown, tags or fusion partners need not be part of it.

Amino acid sequences for entries named in this document (tags omitted).
UniProt Q15291: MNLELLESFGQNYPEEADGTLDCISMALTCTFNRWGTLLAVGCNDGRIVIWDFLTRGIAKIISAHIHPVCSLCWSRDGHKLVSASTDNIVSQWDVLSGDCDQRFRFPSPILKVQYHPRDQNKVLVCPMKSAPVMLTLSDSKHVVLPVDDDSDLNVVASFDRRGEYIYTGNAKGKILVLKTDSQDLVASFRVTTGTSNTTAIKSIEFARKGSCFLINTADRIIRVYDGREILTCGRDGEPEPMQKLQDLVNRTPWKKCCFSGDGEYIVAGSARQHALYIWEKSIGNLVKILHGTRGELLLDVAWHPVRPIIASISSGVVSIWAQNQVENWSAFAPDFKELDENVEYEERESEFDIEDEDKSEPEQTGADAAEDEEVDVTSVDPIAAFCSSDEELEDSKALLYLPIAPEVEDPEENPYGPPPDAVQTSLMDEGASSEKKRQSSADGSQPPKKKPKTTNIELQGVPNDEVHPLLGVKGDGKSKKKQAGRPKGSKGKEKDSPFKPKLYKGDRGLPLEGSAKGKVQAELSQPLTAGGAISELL
UniProt O14686: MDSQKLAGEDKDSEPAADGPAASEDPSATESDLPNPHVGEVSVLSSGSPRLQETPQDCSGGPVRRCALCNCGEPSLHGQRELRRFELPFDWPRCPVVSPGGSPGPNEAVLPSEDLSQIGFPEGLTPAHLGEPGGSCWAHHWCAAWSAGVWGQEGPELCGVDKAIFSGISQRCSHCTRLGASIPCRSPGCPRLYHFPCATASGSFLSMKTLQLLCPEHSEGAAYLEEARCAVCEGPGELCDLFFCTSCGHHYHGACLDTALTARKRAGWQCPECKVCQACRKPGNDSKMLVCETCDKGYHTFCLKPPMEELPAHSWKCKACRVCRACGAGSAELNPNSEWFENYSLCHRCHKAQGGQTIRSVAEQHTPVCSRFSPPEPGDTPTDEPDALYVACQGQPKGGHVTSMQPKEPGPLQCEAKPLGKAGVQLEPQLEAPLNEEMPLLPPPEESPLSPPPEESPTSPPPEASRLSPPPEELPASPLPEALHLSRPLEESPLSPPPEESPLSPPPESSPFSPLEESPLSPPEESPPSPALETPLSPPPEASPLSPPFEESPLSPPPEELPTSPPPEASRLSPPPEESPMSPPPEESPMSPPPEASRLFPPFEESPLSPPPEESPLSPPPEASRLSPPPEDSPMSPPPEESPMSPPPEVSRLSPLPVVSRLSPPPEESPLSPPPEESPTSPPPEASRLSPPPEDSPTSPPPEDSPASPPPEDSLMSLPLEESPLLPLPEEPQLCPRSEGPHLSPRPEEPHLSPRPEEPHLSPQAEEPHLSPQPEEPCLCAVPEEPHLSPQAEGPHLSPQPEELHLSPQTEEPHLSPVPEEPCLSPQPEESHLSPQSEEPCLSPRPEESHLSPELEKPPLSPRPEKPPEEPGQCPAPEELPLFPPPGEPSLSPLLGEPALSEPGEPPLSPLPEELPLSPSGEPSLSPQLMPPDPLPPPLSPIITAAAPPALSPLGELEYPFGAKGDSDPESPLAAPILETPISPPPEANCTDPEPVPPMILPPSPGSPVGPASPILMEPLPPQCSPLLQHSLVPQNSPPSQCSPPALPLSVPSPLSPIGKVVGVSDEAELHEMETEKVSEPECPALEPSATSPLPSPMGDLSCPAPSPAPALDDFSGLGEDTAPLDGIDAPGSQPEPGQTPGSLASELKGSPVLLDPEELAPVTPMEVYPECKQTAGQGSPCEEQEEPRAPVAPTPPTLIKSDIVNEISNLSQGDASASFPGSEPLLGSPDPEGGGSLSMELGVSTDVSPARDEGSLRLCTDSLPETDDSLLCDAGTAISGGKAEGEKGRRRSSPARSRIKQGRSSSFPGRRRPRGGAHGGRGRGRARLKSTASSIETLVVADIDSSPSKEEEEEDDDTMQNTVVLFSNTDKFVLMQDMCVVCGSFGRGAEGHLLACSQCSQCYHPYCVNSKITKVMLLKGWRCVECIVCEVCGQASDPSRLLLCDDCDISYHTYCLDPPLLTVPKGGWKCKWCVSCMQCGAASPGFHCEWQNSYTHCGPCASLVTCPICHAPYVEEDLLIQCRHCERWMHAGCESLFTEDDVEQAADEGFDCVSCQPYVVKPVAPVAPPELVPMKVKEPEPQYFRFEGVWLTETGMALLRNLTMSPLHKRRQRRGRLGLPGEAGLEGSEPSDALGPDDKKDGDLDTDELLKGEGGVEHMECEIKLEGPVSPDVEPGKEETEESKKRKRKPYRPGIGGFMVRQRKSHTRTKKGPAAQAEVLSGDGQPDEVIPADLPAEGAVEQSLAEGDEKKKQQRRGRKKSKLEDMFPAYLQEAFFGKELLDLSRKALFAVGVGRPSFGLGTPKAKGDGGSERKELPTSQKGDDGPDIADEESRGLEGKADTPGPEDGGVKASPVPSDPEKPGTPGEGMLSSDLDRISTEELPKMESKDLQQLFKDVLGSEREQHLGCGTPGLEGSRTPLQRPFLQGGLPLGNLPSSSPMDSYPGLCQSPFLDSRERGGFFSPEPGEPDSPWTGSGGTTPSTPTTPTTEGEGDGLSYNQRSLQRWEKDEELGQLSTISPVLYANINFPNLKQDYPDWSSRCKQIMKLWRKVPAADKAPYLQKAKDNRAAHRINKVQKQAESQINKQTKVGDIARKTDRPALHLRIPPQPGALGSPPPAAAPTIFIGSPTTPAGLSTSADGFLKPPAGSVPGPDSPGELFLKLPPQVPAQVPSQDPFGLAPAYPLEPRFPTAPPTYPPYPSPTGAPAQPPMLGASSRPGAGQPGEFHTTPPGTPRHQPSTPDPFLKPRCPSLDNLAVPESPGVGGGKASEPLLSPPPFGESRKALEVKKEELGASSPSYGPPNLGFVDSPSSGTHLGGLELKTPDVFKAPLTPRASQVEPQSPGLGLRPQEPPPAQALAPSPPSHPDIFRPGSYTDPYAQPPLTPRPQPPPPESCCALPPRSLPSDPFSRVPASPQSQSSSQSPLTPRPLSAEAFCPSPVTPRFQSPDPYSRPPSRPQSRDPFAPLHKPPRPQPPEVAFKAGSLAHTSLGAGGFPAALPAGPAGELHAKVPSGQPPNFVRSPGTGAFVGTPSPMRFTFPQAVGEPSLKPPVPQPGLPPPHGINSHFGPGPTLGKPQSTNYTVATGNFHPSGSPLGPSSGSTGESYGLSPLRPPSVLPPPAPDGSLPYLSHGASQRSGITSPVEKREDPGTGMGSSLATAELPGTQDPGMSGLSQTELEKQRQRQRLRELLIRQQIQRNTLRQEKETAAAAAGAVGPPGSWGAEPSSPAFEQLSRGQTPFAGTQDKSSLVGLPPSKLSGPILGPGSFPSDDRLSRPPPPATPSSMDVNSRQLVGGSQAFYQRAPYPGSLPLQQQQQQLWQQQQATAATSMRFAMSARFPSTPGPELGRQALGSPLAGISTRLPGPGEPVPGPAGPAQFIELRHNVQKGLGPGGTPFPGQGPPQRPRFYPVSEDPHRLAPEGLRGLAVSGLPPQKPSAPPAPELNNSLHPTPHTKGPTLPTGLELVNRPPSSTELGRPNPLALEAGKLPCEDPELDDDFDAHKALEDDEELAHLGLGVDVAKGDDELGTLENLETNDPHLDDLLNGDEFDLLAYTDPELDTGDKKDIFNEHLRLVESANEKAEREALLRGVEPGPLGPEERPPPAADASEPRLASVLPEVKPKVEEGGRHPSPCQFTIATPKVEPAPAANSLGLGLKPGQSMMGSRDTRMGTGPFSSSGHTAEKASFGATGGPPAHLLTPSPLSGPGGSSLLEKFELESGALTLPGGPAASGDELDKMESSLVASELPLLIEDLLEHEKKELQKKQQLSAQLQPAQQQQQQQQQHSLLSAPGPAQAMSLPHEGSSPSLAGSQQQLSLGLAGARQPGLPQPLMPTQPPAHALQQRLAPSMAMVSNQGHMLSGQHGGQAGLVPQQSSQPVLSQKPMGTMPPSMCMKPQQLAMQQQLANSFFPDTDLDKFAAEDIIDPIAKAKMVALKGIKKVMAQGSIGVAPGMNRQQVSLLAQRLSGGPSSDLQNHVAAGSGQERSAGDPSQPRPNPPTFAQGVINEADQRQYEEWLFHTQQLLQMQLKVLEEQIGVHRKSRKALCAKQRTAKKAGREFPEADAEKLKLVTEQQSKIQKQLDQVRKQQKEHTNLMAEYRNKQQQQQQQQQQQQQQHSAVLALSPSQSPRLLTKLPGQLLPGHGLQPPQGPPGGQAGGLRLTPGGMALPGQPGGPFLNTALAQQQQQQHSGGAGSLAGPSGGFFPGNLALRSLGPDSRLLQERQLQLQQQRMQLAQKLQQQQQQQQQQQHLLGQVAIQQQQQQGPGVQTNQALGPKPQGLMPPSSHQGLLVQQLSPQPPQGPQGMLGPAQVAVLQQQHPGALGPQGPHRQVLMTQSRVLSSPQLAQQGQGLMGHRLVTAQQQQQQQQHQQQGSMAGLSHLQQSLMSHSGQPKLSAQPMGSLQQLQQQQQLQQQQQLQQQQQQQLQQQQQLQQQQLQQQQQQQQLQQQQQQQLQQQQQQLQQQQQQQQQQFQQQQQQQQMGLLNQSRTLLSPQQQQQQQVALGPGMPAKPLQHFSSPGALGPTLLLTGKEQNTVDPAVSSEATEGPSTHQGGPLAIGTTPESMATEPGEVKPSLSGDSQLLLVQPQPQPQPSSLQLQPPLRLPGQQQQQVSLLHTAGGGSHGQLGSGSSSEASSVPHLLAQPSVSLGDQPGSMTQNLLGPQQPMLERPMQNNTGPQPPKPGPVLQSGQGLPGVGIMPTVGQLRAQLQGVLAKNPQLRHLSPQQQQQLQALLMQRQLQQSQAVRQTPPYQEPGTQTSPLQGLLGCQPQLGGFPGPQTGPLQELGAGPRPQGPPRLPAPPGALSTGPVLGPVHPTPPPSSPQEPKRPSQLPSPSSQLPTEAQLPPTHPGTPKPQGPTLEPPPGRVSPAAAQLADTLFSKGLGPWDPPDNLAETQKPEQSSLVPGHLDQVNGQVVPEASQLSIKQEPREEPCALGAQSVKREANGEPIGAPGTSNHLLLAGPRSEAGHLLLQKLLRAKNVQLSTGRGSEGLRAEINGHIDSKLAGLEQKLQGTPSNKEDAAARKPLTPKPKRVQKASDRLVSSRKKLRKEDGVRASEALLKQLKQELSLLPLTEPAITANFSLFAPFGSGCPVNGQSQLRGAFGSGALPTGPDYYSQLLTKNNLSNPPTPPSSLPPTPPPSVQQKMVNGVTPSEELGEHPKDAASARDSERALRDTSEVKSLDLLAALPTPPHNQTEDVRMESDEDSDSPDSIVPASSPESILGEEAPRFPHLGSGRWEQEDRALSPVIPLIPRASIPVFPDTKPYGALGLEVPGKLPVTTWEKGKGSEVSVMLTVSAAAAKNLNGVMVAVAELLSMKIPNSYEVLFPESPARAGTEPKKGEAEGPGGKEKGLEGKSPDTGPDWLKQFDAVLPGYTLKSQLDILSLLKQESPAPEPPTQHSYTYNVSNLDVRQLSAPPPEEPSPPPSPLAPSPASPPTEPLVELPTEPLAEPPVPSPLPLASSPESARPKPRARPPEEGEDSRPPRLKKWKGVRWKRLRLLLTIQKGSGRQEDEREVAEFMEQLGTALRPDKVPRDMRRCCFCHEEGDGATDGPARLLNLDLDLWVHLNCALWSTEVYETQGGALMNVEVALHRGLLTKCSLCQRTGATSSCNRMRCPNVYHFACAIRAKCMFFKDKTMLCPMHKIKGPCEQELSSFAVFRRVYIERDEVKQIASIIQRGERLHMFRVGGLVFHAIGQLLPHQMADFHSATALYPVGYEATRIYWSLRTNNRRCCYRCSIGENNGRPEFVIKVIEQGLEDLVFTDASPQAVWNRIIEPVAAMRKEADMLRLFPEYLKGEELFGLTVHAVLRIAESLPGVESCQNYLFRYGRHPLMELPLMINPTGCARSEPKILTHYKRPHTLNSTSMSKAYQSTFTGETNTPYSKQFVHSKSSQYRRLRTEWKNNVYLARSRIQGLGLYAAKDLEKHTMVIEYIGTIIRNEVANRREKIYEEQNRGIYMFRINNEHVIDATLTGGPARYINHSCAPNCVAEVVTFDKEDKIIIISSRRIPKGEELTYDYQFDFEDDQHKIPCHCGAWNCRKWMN

B1: endogenous FOXQ1 (protein, UniProt Q9C009 1-403)
chain: MKLEVFVPRAAHGDKQGSDLEGAGGSDAPSPLSAAGDDSLGSDGDCAANSPAAGGGARDTQGDGEQSAGGGPGAEEAIPAAAAAAVVAEGAEAGAAGPGAGGAGSGEGARSKPYTRRPKPPYSYIALIAMAIRDSAGGRLTLAEINEYLMGKFPFFRGSYTGWRNSVRHNLSLNDCFVKVLRDPSRPWGKDNYWMLNPNSEYTFADGVFRRRRKRLSHRAPVPAPGLRPEEAPGLPAAPPPAPAAPASPRMRSPARQEERASPAGKFSSSFAIDSILRKPFRSRRLRDTAPGTTLQWGAAPCPPLPAFPALLPAAPCRALLPLCAYGAGEPARLGAREAEVPPTAPPLLLAPLPAAAPAKPLRGPAAGGAHLYCPLRLPAALQAASVRRPGPHLPYPVETLLA
B2: FOXQ1 wild type with C-terminal V5-epitope tag (protein, UniProt Q9C009 1-403)
chain: MKLEVFVPRAAHGDKQGSDLEGAGGSDAPSPLSAAGDDSLGSDGDCAANSPAAGGGARDTQGDGEQSAGGGPGAEEAIPAAAAAAVVAEGAEAGAAGPGAGGAGSGEGARSKPYTRRPKPPYSYIALIAMAIRDSAGGRLTLAEINEYLMGKFPFFRGSYTGWRNSVRHNLSLNDCFVKVLRDPSRPWGKDNYWMLNPNSEYTFADGVFRRRRKRLSHRAPVPAPGLRPEEAPGLPAAPPPAPAAPASPRMRSPARQEERASPAGKFSSSFAIDSILRKPFRSRRLRDTAPGTTLQWGAAPCPPLPAFPALLPAAPCRALLPLCAYGAGEPARLGAREAEVPPTAPPLLLAPLPAAAPAKPLRGPAAGGAHLYCPLRLPAALQAASVRRPGPHLPYPVETLLA

What was measured:
[1] = molecular target: endogenous RbBP5 (human (endogenous in HEK293, HMLE, MDA-MB-231, SUM1315, MDA-MB-436 and patient tumors)) (UniProt Q15291); test: co-IP; IP of RbBP5 (IgG control) from patient tumor lysates (lung, ovarian, three TNBC); tissue extracted in 2% SDS for 10 min at 70 °C; blot with anti-FOXQ1 antibody
[2] = molecular target: endogenous RbBP5 (human (endogenous in HEK293, HMLE, MDA-MB-231, SUM1315, MDA-MB-436 and patient tumors)) (UniProt Q15291); test: co-IP; IP of endogenous RbBP5 (IgG control) from MDA-MB-231, SUM1315 and MDA-MB-436 lysates; blot with anti-FOXQ1 antibody
[3] = molecular target: KMT2A/MLL1 (human (endogenous in HMLE)) (UniProt Q03164); test: co-IP; IP of each endogenous KMT2/MLL enzymatic subunit (IgG control) from HMLE/FOXQ1 lysate; blot with anti-V5 antibody for FOXQ1
[4] = molecular target: KMT2G/SET1B (human (endogenous in HMLE)) (UniProt Q9UPS6); test: as above
[5] = molecular target: KMT2F/SET1A (human (endogenous in HMLE)) (UniProt O15047); test: as above
[6] = molecular target: KMT2B/MLL2 (human (endogenous in HMLE)) (UniProt Q9UMN6); test: as above
[7] = molecular target: KMT2C/MLL3 (human (endogenous in HMLE)) (UniProt Q8NEZ4); test: as above
[8] = molecular target: KMT2D/MLL4 (human (endogenous in HMLE)) (UniProt O14686); test: as above

Binder | binding [1] | binding [2] | binding [3] | binding [4] | binding [5] | binding [6] | binding [7] | binding [8]
B1 | binds | binds |  |  |  |  |  | 
B2 |  |  | binds | no binding | no binding | no binding | no binding | no binding
